Assay results taken from PubChem BioAssay AID1963576 (National Center for Advancing Translational Sciences (NCATS), 2024).
Screen size: about 46,000 compounds; about 60 (0.1%) were called active. Inconclusive results (about 3%) are left out. The call rests on the fitted dose curve; in most records, active means well fitted inhibition curve with a large enough effect; inconclusive means small, poorly fitted or top-dose-only effect; inactive means no such curve, though single readings can be large or run the other way. Some of the results follow.

experiment: Primary qHTS assay for Inhibitors of ovarian cancer metastasis using an organotypic tumor microenvironment (TME) model.; further: nearly all actives have a fitted effect of over 65% in size;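 on activity change, negative = inhibition: plate controls were DMSO wells for no effect and tomatine positive control wells for full effect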; details: SKOV3ip1-GFP adhesion/invasion on 3D omental model, fluorescence; series mostly up to 45.8 µM; activity change, negative = inhibition: at the top concentration
Procedure, shortened: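 Adhesion/invasion was scored as fixed GFP-labeled SKOV3ip1 cell counts (488/509 nm), normalized to DMSO and tomatine controls. Cancer cells in serum-free medium, with four compound doses (0.36-46 umol/L), sat 2 hr at RT then 16 hr at 37 C on a 48 hr fibroblast/mesothelial/ECM culture.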

Activity change, negative = inhibition, inactive:
COc1cc(NS(=O)(=O)c2ccc(NC(=O)COc3ccc(Cl)cc3Cl)cc2)nc(OC)n1 -0.428%
COc1ccc2c(c1)c(=O)c(S(=O)(=O)c1ccc(F)cc1)cn2CC(=O)Nc1ccc(C)cc1C -6.06%
CCN1C(=O)c2ccccc2Sc2ccc(NC(=O)Cc3ccc(OC)c(OC)c3)cc21 -0.347%
c1ccc(Nc2c(-c3ccccc3)nc3ncccn23)cc1 19.1%
O=C(CCNS(=O)(=O)c1ccc(Br)s1)Nc1ccc(Br)cc1 -7.32%
Cc1ccc(CNCc2ccc3c(c2)n(C)c(=O)n3C)cc1 12.7%
CCOc1ccc2nc(N(Cc3cccnc3)C(=O)c3ccco3)sc2c1 -7.46%
O=C(c1cc(S(=O)(=O)N2CCCC2)c[nH]1)N1CCN(c2cccc(Cl)c2)CC1 -5.48%
CCC(CC)C(=O)N1CCc2cc(OC)c(OC)cc2C1COc1ccc2c(C)cc(=O)oc2c1 (stereo not given) 1.85%
O=C(NCc1ccccc1Cl)C(=O)NCC(c1ccc2c(c1)OCO2)N1CCOCC1 (stereo not given) 10.7%
COc1ccc(CNC(=O)c2cnc3sc4cc(OC)ccc4n3c2=O)cc1 6.21%
CCOc1ccc(NC(=O)CSc2nc(-c3ccccc3)c3cc(OCC)ccc3n2)cc1 8.25%
CCOc1ccccc1N(CC)C(=O)Cn1ncc2c1-c1ccccc1OC2 1.66%
Cc1cc(Cl)ccc1NC(=O)CCS(=O)(=O)c1ccc2c(c1)CC(C)N2C(=O)C1CC1 (stereo not given) -1.86%
COc1ccc(CNC(=O)CCS(=O)(=O)c2cc3c4c(c2)CCN4C(=O)CC3)cc1OC -2.46%
Cc1c(C(=O)N2CCCC2)oc2c1-c1nn(CC(=O)NCc3ccccc3F)cc1CC2 -16.4%
O=C(Nc1cc(Cl)ccc1O)c1cc(-c2ccc3c(c2)OCO3)on1 -6.21%
COc1ccc(C2C(C(=O)Nc3cccnc3)=C(C)Nc3nc(-c4ccc(OC)c(OC)c4)nn32)cc1 (stereo not given) 2.05%
Cc1ccc(S(=O)(=O)c2nnn3c2nc(N(C)Cc2ccccc2)c2cc(Cl)ccc23)cc1C -17.2%
COc1ccc(-c2nc(CSCC(=O)NCCc3ccc(OC)c(OC)c3)c(C)o2)cc1 13.8%
COc1ccccc1CNC(=O)c1cc2cccc3c2n1CCS3 6.25%
CC(C)NC(=O)C1=CC(c2ccc3c(c2)OCO3)=NS(=O)(=O)N1C 8.82%
CC1CCN(c2nc3ccccc3nc2SCC(=O)Nc2ccccc2C(C)C)CC1 -8.78%
CCCN1CCN(c2ncnc3sc(C(=O)Nc4ccc(OC(F)(F)F)cc4)c(C)c23)CC1 -28.1%
Cc1nnc(N2CCCC(C(=O)Nc3cc(F)ccc3F)C2)c2nn(-c3ccccc3)c(C)c12 (stereo not given) -8.41%
CCOc1ccc(CCNC(=O)c2cc3n(n2)CCCN(Cc2ccc(C)cc2)C3=O)cc1OCC -7.35%
Cc1cc(-c2ccc(C)c(S(=O)(=O)Nc3ccc(C)c(N(C)C)c3)c2)on1 -2.6%
O=C(NC1(C(F)(F)F)N=C(c2ccccc2)N(Cc2ccccc2)C1=O)c1ccc(F)cc1 (stereo not given) 7.42%
CCCCC(=O)OCc1cc(=O)n2nc(C3CC3)sc2n1 4.1%
CC(=O)c1ccc(NC(=O)Cn2c(=O)nc(-c3ccccc3)c3ccccc32)cc1 -7.72%
CC1CCN(S(=O)(=O)c2ccc3c(c2)N(CC(=O)N(C)Cc2ccccc2)C(=O)CO3)CC1 -3.53%
CCN(CC)c1cc(NC2CCCCC2)c2c3c(onc13)-c1ccccc1C2=O 1.23%
Cn1cnc(S(=O)(=O)N2CCC(C(=O)Nc3ccc(OC(F)(F)F)cc3)CC2)c1 -6.8%
O=C(CCCc1nc(-c2ccc(Cl)cc2)no1)NCc1ccco1 -2.57%
CCCCN1C(C(=O)c2ccccc2)=C(OC(=O)CC)c2ccccc2S1(=O)=O -19.7%
Cc1cc(C)c(NC(=O)Cn2nnc3sc4c(c3c2=O)CCC(C(C)(C)C)C4)c(C)c1 (stereo not given) 2.87%
O=C(c1ccc2c(c1)N(Cc1ccccc1)C(=O)c1ccccc1S2(=O)=O)N1CCC(Cc2ccccc2)CC1 20.9%
COc1cccc(CNC(=O)C2CCCN(c3nn4cc(-c5ccc(C)cc5)nc4s3)C2)c1 (stereo not given) -2.84%
Cc1ccccc1CN1C(=O)C(O)(c2c[nH]c3ccccc23)c2cc(Cl)ccc21 (stereo not given) -24%
O=c1c2sc3ccccc3c2n(Cc2cccc(Cl)c2)c(=O)n1Cc1ccc(F)cc1 2.99%
CCc1cc(C(=O)N2CCN(c3ccccc3)CC2)no1 23.7%
O=C(NCc1ccc(Cl)cc1)c1cc2cccc3c2n1CCS3 -1.25%
COc1ccc(CNC(=O)C2CCN(C(=O)N3CCOc4ccc(C)cc43)CC2)cc1 -0.914%
COC(=O)c1sccc1S(=O)(=O)N(CC(=O)NCc1ccc(F)cc1)c1ccccc1 18.3%
Cc1cccc(-n2c(=O)c3c(c4cc(C)ccc4n3C)n(CC(=O)Nc3ccc(C)c(C)c3)c2=O)c1 47.3%
CC(C)(C)NC(=O)Cn1cc(S(=O)(=O)Cc2ccccc2Cl)c2ccccc21 -2.85%
COc1ccccc1N1CCN(c2c3c(nc4nncn24)CCC3)CC1 3.56%
COc1ccc(-c2nc(SCC(=O)NCC3CCCO3)c(-c3ccc(C)cc3)[nH]2)cc1OC (stereo not given) -0.499%
CCOC(=O)Cn1c(=N)n(CCOc2ccc(OC)cc2)c2ccccc21 -4.66%
COc1ccc(C)cc1NS(=O)(=O)c1ccc2c(c1)CCCN2C(C)=O 5.05%
Cc1ccc(N(C)S(=O)(=O)c2nnc(NC(=O)c3ccco3)s2)cc1 -6.8%
COc1ccc(-c2c(C#N)c(SCC(=O)Nc3ccc(C)c(C)c3)nc(C)c2C(=O)Nc2ccccc2)cc1OC -2.74%
CCCCNC(=O)CN1CCN(c2ccc(NC(=O)c3ccc(OC)cc3)cc2C(=O)O)CC1 -4.34%
CCc1ccc(C2c3c(-c4cc(C)ccc4O)n[nH]c3C(=O)N2CCO)cc1 (stereo not given) 0.477%
Cn1c(SCC(=O)N2CCOCC2)ncc(C(=O)Nc2ccc(F)cc2)c1=O 6.74%
CCc1ccc(NCc2cc3cc4c(cc3n(CC(=O)Nc3ccc(OC)cc3)c2=O)OCO4)cc1 8.24%
COc1ccc(NC(=O)CCCS(=O)(=O)c2nc(-c3ccccc3OC)cc(C(F)(F)F)n2)c(OC)c1 6.3%
CCOC(=O)c1c(S(=O)(=O)NCC(=O)Nc2cccc(SC)c2)c(C)n(C)c1C -40.5%
CCCSc1nc2sc3c(c2c(=O)n1-c1ccc(C)cc1)CCCC3 1.55%
COc1ccc(C(C)NC(=O)CN(c2cc(OC)ccc2OC)S(=O)(=O)c2ccccc2)cc1 (stereo not given) 24%
CC1CCN(CCCNC(=O)CN2C(=O)CSc3ccc(S(=O)(=O)N4CCCCC4)cc32)CC1 2.01%
COc1ccc(-n2c(CC3C(=O)Nc4ccc(C)cc43)nc3ccccc3c2=O)cc1 (stereo not given) -0.285%
O=C(NCc1ccccc1Cl)c1ccc2c(c1)ncn2-c1cccc(F)c1 -13.2%
COc1cccc(-n2ccnc2SCC(=O)Nc2cccc3ccccc23)c1 1.75%
CCc1cccc(C)c1NC(=O)C1CCN(S(=O)(=O)c2cc(Br)cc3c2N(C(C)=O)CC3)CC1 3.23%
O=C(c1cccs1)N1CCCc2cc(NS(=O)(=O)c3ccc(Br)cc3)ccc21 2.55%
COc1ccc(NC(=O)Nc2cccc(-c3noc(C)n3)c2)cc1 27.2%
COCCn1c(CNC(=O)c2ccccc2C)nc2cccnc21 5.38%
Cc1ccc(C)c(CN2CCC(CNC(=O)C(CC(C)C)N3Cc4ccccc4C3=O)CC2)c1 (stereo not given) 5.3%
Brc1cccc(-c2nn(-c3ccccc3)c3c2cnc2cc4c(cc23)OCO4)c1 12.9%
COc1cc(-c2noc(-c3cc4cccc(C)c4oc3=O)n2)cc(OC)c1OC -3.93%
O=c1c2c3c(sc2nnn1CCCCOc1ccc(Cl)cc1)CCCC3 -3.5%
CCCSC1=NC2(CCN(C(=O)NC3CCCCC3)CC2)N=C1c1ccc(OC)cc1 -11.8%
N#C/C(=C/c1ccc(O)cc1)c1nc(-c2ccc(-c3ccccc3)cc2)cs1 -17.7%
O=C(Nc1ccc(F)cc1)c1nc(SCc2ccccc2F)ncc1Cl 13.5%
COc1ccc(-c2nsc(NC(=O)c3oc4ccc(Cl)cc4c3C)n2)cc1 -27.3%
Cc1cc(NC(=O)c2cnn(-c3ccccc3)c2-n2cccc2)ccc1Br 0.451%
Cn1c(C(=O)NCc2ccccc2Cl)cc2sc(Cl)cc21 13.6%
Cc1ccc(OCCn2c(CNc3ccccc3C)nc3ccccc32)cc1 4.87%
Cc1cccc(N(C)C(=O)C2CCC(CNS(=O)(=O)c3cccc4nsnc34)CC2)c1 (stereo not given) -12.6%
COc1cccc(CNC(=O)Cn2c(=O)cc(C)c3c(C)nn(C)c32)c1OC 24.1%
O=C(NC1CCCCC1)c1ccc2c(c1)N(Cc1ccc(F)cc1)C(=O)c1ccccc1S2(=O)=O -3.27%
COc1cc(NS(=O)(=O)c2cc(Br)cc3c2N(C(C)=O)C(C)C3)cc(OC)c1 (stereo not given) -15.8%

outcome, inactive:
CCCSc1ncc(Cl)c(C(=O)NCc2ccc(C)cc2)n1
CCOC(=O)c1c(C)[nH]c(CCC(=O)NCc2cc(Br)ccc2OC)c1C
CCc1nn2c(=O)c(S(=O)(=O)Nc3ccc(C)cc3C)c(C)nc2s1
CCOc1ccc(C(=O)c2cn(CC(=O)Nc3ccc(C)c(Cl)c3)c3ccc(OCC)cc3c2=O)cc1
COc1cc(NC(=O)COCc2cc(-c3ccc4c(c3)OCO4)on2)c(OC)cc1Cl
O=C(CS(=O)(=O)c1cccc2nsnc12)N1CCN(c2ccc(F)cc2)CC1
COc1cc(C2c3c(-c4ccccc4O)n[nH]c3C(=O)N2Cc2ccncc2)cc(OC)c1OC (stereo not given)
CC1CCCN(C(=O)c2ccc(CSc3nc4ccncc4n3Cc3ccccc3)cc2)C1 (stereo not given)
COc1ccc(NC(=O)N2CCN(Cc3nc4ccc(C)cc4o3)CC2)cc1OC
CC1=C(c2ccc(C(C)C)cc2)S(=O)(=O)NC1=NCc1ccc(OC(C)C)cc1
Cc1nc(-c2cccc(F)c2)sc1CCNC(=O)Cc1ccc(F)cc1
CCOc1ccccc1-n1c(N)c(C(=O)OC)c2nc3ccccc3nc21
